Source: PMC8611056
No constants are given. Whether binding was seen depends on the method and setting. Some entries that bind do so weakly or less than the wild type.

Sequences of proteins named here, by UniProt entry; tags and fusion partners are left off. Residues count along the entry.
UniProt P04275, residues 764-2813: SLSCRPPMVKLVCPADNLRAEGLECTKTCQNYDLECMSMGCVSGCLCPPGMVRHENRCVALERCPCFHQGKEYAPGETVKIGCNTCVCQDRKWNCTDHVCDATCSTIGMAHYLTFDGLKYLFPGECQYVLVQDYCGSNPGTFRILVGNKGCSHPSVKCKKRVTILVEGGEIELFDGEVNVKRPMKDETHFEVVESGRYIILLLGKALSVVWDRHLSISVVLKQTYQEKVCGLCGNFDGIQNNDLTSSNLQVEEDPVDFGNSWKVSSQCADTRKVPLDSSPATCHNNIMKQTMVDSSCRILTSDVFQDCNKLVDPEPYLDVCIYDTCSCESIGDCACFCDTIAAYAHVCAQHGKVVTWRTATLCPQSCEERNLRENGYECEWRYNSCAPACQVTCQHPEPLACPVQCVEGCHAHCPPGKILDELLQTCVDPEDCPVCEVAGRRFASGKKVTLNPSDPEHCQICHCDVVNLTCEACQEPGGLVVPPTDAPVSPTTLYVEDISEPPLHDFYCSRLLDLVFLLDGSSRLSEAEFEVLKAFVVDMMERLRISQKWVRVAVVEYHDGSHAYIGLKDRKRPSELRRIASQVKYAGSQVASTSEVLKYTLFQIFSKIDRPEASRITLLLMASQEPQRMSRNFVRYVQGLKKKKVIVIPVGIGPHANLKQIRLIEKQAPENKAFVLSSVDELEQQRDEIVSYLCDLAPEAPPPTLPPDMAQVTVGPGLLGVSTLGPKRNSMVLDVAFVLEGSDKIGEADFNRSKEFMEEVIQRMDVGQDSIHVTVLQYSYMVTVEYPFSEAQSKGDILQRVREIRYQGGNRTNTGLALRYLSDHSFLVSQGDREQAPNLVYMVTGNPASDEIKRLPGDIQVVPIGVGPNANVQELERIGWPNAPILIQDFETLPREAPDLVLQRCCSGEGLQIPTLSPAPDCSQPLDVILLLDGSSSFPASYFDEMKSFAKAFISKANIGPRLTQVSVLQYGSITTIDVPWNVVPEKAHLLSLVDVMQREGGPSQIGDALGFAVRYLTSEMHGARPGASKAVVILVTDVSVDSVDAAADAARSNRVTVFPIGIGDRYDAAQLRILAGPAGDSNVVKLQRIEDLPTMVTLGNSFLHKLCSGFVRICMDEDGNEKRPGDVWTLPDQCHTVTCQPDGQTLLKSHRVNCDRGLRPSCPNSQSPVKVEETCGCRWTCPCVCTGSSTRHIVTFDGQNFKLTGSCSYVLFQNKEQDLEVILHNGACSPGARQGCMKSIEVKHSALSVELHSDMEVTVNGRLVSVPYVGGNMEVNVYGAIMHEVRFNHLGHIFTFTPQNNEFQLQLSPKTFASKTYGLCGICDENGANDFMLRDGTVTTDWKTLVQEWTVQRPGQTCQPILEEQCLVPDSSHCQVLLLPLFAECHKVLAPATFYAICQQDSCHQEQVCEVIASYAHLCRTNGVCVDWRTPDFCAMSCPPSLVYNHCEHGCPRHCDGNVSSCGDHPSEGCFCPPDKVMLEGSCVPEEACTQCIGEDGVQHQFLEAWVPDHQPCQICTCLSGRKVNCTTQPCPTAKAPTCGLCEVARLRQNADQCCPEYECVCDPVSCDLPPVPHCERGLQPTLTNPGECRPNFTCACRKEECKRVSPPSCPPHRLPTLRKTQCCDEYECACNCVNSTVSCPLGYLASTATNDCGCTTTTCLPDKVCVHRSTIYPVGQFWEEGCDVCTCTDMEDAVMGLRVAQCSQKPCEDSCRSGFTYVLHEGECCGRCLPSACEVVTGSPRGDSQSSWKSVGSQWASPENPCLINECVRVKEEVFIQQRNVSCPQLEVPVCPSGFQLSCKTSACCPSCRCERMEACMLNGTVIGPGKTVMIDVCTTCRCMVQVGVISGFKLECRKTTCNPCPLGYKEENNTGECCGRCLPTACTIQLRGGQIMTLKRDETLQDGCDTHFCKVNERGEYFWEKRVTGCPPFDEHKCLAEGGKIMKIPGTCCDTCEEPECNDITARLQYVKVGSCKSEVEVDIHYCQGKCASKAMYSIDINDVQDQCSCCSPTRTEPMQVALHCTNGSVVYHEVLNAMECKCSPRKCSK
UniProt Q2FZF0, residues 41-613: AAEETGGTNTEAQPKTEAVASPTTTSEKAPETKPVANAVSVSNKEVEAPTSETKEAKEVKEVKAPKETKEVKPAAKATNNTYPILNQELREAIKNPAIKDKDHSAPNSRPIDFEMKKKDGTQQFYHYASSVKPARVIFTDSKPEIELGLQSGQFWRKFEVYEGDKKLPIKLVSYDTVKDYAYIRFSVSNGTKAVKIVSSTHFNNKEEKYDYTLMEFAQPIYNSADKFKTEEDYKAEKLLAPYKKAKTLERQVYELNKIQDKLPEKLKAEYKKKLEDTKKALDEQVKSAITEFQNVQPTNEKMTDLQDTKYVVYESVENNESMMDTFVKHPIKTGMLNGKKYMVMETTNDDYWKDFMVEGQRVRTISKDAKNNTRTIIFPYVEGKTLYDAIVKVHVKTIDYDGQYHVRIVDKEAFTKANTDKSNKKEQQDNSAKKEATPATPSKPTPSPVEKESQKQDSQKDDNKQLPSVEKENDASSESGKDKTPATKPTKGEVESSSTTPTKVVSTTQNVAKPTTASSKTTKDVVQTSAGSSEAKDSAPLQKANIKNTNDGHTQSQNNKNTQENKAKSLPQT
UniProt O86488, residues 36-568: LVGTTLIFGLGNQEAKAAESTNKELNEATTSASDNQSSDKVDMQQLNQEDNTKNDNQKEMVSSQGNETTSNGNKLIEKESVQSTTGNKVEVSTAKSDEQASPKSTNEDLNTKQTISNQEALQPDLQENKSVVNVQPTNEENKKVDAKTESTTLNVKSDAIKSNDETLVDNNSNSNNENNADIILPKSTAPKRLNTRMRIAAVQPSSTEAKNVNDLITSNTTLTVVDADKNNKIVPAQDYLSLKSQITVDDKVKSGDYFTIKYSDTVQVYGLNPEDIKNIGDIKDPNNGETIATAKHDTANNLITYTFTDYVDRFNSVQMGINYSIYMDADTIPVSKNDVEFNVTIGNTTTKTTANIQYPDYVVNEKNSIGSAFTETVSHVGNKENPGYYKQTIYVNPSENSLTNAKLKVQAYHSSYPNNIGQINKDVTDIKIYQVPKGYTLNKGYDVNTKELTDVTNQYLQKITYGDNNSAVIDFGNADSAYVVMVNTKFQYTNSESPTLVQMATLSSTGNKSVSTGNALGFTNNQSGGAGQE
UniProt Q2FUY2, residues 201-542: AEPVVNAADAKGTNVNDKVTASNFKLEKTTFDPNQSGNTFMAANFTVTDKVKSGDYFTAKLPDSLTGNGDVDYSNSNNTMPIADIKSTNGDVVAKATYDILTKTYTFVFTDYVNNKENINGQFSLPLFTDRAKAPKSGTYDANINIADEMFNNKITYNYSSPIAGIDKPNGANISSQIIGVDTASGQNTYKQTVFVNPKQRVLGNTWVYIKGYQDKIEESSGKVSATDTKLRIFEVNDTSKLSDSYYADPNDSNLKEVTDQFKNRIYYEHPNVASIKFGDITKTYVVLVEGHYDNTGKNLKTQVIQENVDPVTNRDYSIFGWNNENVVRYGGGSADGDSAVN
UniProt Q53654, residues 31-344: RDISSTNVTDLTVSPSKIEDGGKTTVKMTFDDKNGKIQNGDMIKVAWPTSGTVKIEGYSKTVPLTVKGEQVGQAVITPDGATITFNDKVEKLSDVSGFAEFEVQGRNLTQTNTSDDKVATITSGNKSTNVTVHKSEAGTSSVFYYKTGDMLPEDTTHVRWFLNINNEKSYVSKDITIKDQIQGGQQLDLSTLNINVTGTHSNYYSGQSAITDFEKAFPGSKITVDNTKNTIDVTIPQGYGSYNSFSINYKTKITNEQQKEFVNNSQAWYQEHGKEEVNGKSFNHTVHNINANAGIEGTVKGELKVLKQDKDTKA
UniProt Q2FZE9, residues 47-313: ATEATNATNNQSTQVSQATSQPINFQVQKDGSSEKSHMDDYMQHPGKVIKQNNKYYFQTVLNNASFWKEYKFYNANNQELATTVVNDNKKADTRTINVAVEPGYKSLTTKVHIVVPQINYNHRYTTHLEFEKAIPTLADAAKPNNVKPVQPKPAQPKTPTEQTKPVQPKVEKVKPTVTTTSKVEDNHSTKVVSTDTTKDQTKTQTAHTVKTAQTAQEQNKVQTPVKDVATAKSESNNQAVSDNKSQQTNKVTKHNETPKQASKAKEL
UniProt P14738, residues 194-511: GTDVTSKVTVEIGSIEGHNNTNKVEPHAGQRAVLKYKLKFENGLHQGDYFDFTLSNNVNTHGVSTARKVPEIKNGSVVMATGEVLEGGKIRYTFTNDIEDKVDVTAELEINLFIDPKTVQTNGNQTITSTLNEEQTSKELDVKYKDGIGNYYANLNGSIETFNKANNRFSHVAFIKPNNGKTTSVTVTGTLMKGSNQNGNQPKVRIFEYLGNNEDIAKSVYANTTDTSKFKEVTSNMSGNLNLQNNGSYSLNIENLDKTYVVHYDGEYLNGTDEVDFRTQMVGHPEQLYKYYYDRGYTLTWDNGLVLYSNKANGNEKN
UniProt O86489, residues 53-606: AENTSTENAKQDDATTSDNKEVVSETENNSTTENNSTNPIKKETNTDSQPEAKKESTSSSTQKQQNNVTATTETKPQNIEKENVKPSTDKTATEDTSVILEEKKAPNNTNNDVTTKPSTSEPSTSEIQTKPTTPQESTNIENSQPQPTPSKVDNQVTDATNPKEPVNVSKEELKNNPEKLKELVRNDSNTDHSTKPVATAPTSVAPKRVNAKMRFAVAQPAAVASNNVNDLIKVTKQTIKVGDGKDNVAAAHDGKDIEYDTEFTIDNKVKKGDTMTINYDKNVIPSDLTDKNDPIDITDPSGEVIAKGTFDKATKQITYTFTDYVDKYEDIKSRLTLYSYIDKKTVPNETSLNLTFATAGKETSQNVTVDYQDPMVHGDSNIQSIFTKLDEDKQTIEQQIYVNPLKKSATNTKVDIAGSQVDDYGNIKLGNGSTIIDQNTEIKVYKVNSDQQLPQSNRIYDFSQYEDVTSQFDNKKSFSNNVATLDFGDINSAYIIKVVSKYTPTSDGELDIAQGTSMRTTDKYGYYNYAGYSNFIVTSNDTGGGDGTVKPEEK
UniProt Q2FXJ2, residues 41-660: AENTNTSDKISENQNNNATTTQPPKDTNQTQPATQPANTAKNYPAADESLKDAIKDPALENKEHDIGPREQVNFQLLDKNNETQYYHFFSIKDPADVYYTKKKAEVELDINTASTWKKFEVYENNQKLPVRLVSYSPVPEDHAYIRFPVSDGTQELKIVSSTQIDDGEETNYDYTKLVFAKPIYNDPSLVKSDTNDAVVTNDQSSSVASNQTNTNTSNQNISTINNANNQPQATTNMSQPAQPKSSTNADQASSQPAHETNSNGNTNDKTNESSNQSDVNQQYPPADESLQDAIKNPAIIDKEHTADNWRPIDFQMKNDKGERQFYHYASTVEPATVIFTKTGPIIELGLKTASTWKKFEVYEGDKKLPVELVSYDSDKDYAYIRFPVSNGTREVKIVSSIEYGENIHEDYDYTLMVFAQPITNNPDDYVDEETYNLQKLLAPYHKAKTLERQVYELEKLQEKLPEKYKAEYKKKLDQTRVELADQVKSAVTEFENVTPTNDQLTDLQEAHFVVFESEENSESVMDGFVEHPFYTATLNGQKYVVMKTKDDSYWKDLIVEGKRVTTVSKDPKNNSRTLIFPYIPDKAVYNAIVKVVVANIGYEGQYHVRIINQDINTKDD
UniProt Q2G015, residues 221-559: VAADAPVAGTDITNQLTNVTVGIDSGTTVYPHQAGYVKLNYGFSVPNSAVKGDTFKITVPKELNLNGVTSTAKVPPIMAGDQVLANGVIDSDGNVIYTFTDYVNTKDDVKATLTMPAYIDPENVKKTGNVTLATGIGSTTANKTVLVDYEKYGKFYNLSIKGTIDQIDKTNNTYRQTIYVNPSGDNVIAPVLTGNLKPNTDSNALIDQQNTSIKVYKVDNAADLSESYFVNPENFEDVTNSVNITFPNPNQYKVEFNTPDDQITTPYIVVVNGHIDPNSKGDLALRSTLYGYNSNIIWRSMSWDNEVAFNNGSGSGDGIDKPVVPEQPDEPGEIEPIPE

What was measured:
[1] = biological target: human von Willebrand factor (human) (UniProt P04275); assay: bacterial adhesion to coated protein (ELISA-type); microtiter wells coated with vWF, incubated with S. aureus SH1000 WT or isdB mutant cells, or with L. lactis with pNZ8037::isdB or empty vector, 1 h at 22 °C; only the target purified
[2] = biological target: IsdB released by lysostaphin from S. aureus SH1000 spa grown in RPMI (75 kDa vWF-binding protein) (S. aureus (endogenous in SH1000 spa)) (UniProt Q2FZF0); assay: far-Western, overlay or dot blot; lysostaphin-released cell wall proteins of S. aureus SH1000 spa, reducing SDS-PAGE, nitrocellulose probed with 2 μg/ml human vWF in PBS for 1 h at 22 °C, then anti-vWF IgG; only the binder purified
[3] = biological target: SdrD_(36-568) (S. aureus) (UniProt O86488); assay: ELISA; recombinant CWA proteins coated at 1 μg/well (0.1 M sodium carbonate, pH 9.5), 1 μg/well of vWF in PBS for 1 h at 22 °C, detected with rabbit anti-vWF IgG; also with ristocetin-treated vWF on immobilised IsdB; both purified
[4] = biological target: ClfB_(201-542) (S. aureus) (UniProt Q2FUY2); assay: as above
CNA_(31-344) (S. aureus) = CNA_(31-344) (S. aureus) (UniProt Q53654); assay: as above
[5] = biological target: IsdA_(47-313) (S. aureus) (UniProt Q2FZE9); assay: as above
[6] = biological target: FnBPA_(194-511) (S. aureus) (UniProt P14738); assay: as above
[7] = biological target: SdrE_(53-606) (S. aureus) (UniProt O86489); assay: as above
[8] = biological target: IsdH_(41-660) (S. aureus) (UniProt Q2FXJ2); assay: as above
[9] = biological target: ClfA_(221-559) (S. aureus) (UniProt Q2G015); assay: as above
[10] = biological target: FnBPB_(163-480) (S. aureus); assay: as above

Measured: binding

IsdB on S. aureus SH1000 cells (from UniProt Q2FZF0 41-613)
binds: [1]

human von Willebrand factor (from UniProt P04275 764-2813)
binds: [2]
not listed: [1]
no binding (tested: 1 μg/well of vWF): all other assays above

IsdB ectopically expressed on L. lactis NZ9800 (pNZ8037::isdB) (from UniProt Q2FZF0 41-613)
binds: [1]
